Reference: the supplement of paper PMC9151546
Many values rest on one well or one pass, so single values are uncertain.

Columns and labels:
CHO-K1 [1] = assay: hypodiploid nuclei frequency (% of nucleated events); higher = more hypodiploid events (aneugenic)
Description: (§1)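 Flow-cytometric in vitro micronucleus assay (Litron MicroFlow) in CHO-K1 cells in 96-well plates, 19 concentrations (4.5-200 µM, n=1 per concentration). Without S9, cells were exposed for 24 h and sampled at 48 h. With Aroclor 1254-induced rat liver S9, cells were exposed for 3-4 h and sampled at 27-28 h. Read-outs are %MN and %hypodiploid nuclei relative to nucleated events, and relative survival as the nuclei-to-bead ratio versus the 1% DMSO vehicle control (x100).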

CHO-K1 [2] = assay: relative survival (nuclei to bead ratio vs DMSO control) (% of vehicle control); higher = more surviving cells
Description: as §1

CHO-K1 [3] = assay: micronucleus frequency (% of nucleated events); higher = more micronuclei (genotoxic)
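For hypodiploid nuclei frequency (% of nucleated events) in this document: hypodiploid nuclei gated on a flow cytometer with 488 nm excitation after SYTOX Green staining, cultures at 37 °C, positive controls vinblastine without S9 and cyclophosphamide with S9.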
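For micronucleus frequency (% of nucleated events) in this document: cells lysed with nuclei stained by SYTOX Green, then micronucleus-gated events counted against nucleated events by flow cytometry with 488 nm excitation.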
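For relative survival (nuclei to bead ratio vs DMSO control) in this document: Lysed-cell nuclei stained with SYTOX Green and counted against counting beads by flow cytometry at 488 nm excitation, with vinblastine (no S9) and cyclophosphamide (plus S9) as positive controls.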

CCN(CC)c1ccccc1 [N,N-Diethylaniline]
Details	hypodiploid nuclei frequency, CHO-K1 [1] [%]	micronucleus frequency, CHO-K1 [3] [%]	relative survival, CHO-K1 [2]
concentration: 4.44 (µM), S9 metabolic activation: with S9, exposure time: 3-4 hours	0.34	0.92	97.1
concentration: 4.44 (µM), S9 metabolic activation: without S9, exposure time: 24 hours	0.54	1.2	95.8
concentration: 5.55 (µM), S9 metabolic activation: with S9, exposure time: 3-4 hours	0.24	0.82	106
concentration: 5.55 (µM), S9 metabolic activation: without S9, exposure time: 24 hours	0.62	1.42	86.8
concentration: 6.93 (µM), S9 metabolic activation: with S9, exposure time: 3-4 hours	0.26	0.84	103
concentration: 6.93 (µM), S9 metabolic activation: without S9, exposure time: 24 hours	0.58	1.24	96.2
concentration: 8.66 (µM), S9 metabolic activation: with S9, exposure time: 3-4 hours	0.14	1	100
concentration: 8.66 (µM), S9 metabolic activation: without S9, exposure time: 24 hours	0.32	1.26	99.4
concentration: 10.8 (µM), S9 metabolic activation: with S9, exposure time: 3-4 hours	0.26	1.04	111
concentration: 10.8 (µM), S9 metabolic activation: without S9, exposure time: 24 hours	0.48	1.24	102
concentration: 13.5 (µM), S9 metabolic activation: with S9, exposure time: 3-4 hours	0.24	0.94	92.2
concentration: 13.5 (µM), S9 metabolic activation: without S9, exposure time: 24 hours	0.44	1.34	100
concentration: 16.9 (µM), S9 metabolic activation: with S9, exposure time: 3-4 hours	0.2	1.1	96
concentration: 16.9 (µM), S9 metabolic activation: without S9, exposure time: 24 hours	0.44	1.48	93.6
concentration: 21.2 (µM), S9 metabolic activation: with S9, exposure time: 3-4 hours	0.3	1.18	100
concentration: 21.2 (µM), S9 metabolic activation: without S9, exposure time: 24 hours	0.46	1.22	95.5
concentration: 26.4 (µM), S9 metabolic activation: with S9, exposure time: 3-4 hours	0.24	0.92	142
concentration: 26.4 (µM), S9 metabolic activation: without S9, exposure time: 24 hours	0.86	0.84	78.3
concentration: 33.1 (µM), S9 metabolic activation: with S9, exposure time: 3-4 hours	0.18	1.12	129
concentration: 33.1 (µM), S9 metabolic activation: without S9, exposure time: 24 hours	0.76	1.18	93.6
concentration: 41.3 (µM), S9 metabolic activation: with S9, exposure time: 3-4 hours	0.18	1.08	92.4
concentration: 41.3 (µM), S9 metabolic activation: without S9, exposure time: 24 hours	0.96	1.16	99
concentration: 51.6 (µM), S9 metabolic activation: with S9, exposure time: 3-4 hours	0.2	1.2	92.4
concentration: 51.6 (µM), S9 metabolic activation: without S9, exposure time: 24 hours	0.58	1.48	111
concentration: 64.6 (µM), S9 metabolic activation: with S9, exposure time: 3-4 hours	0.36	0.94	98.2
concentration: 64.6 (µM), S9 metabolic activation: without S9, exposure time: 24 hours	0.58	1.54	111
concentration: 80.7 (µM), S9 metabolic activation: with S9, exposure time: 3-4 hours	0.32	1.12	97.1
concentration: 80.7 (µM), S9 metabolic activation: without S9, exposure time: 24 hours	0.96	1.52	101
concentration: 101 (µM), S9 metabolic activation: with S9, exposure time: 3-4 hours	0.14	1.3	120
concentration: 101 (µM), S9 metabolic activation: without S9, exposure time: 24 hours	0.76	1.3	89.1
concentration: 126 (µM), S9 metabolic activation: with S9, exposure time: 3-4 hours	0.18	1.02	96.2
concentration: 126 (µM), S9 metabolic activation: without S9, exposure time: 24 hours	0.86	1.38	96.2
concentration: 158 (µM), S9 metabolic activation: with S9, exposure time: 3-4 hours	0.3	1.06	89.1
concentration: 158 (µM), S9 metabolic activation: without S9, exposure time: 24 hours	1.28	2.02	91.1
concentration: 197 (µM), S9 metabolic activation: with S9, exposure time: 3-4 hours	0.12	1.34	97.1
concentration: 197 (µM), S9 metabolic activation: without S9, exposure time: 24 hours	1.52	2.56	76.5

CCN(CC)C(=O)SCc1ccc(Cl)cc1 [Thiobencarb]
Details	hypodiploid nuclei frequency, CHO-K1 [1] [%]	micronucleus frequency, CHO-K1 [3] [%]	relative survival, CHO-K1 [2]
concentration: 4.5 (µM), S9 metabolic activation: with S9, exposure time: 3-4 hours	0.48	1.6	89.8
concentration: 4.5 (µM), S9 metabolic activation: without S9, exposure time: 24 hours	0.75	2.06	142
concentration: 5.63 (µM), S9 metabolic activation: with S9, exposure time: 3-4 hours	0.28	1.22	84.6
concentration: 5.63 (µM), S9 metabolic activation: without S9, exposure time: 24 hours	0.95	1.68	115
concentration: 7.04 (µM), S9 metabolic activation: with S9, exposure time: 3-4 hours	0.35	1.27	87.2
concentration: 7.04 (µM), S9 metabolic activation: without S9, exposure time: 24 hours	0.67	1.47	135
concentration: 8.8 (µM), S9 metabolic activation: with S9, exposure time: 3-4 hours	0.29	1.23	89.2
concentration: 8.8 (µM), S9 metabolic activation: without S9, exposure time: 24 hours	0.64	1.79	158
concentration: 11 (µM), S9 metabolic activation: with S9, exposure time: 3-4 hours	0.28	1.18	88.2
concentration: 11 (µM), S9 metabolic activation: without S9, exposure time: 24 hours	0.92	2.02	116
concentration: 13.7 (µM), S9 metabolic activation: with S9, exposure time: 3-4 hours	0.26	1.54	95
concentration: 13.7 (µM), S9 metabolic activation: without S9, exposure time: 24 hours	0.78	2.25	112
concentration: 17.2 (µM), S9 metabolic activation: with S9, exposure time: 3-4 hours	0.26	1.35	105
concentration: 17.2 (µM), S9 metabolic activation: without S9, exposure time: 24 hours	0.73	2.33	124
concentration: 21.5 (µM), S9 metabolic activation: with S9, exposure time: 3-4 hours	0.28	1.84	92.2
concentration: 21.5 (µM), S9 metabolic activation: without S9, exposure time: 24 hours	0.74	1.54	105
concentration: 26.8 (µM), S9 metabolic activation: with S9, exposure time: 3-4 hours	0.225	0.81	62.1
concentration: 26.8 (µM), S9 metabolic activation: without S9, exposure time: 24 hours	1.02	3.03	117
concentration: 33.6 (µM), S9 metabolic activation: with S9, exposure time: 3-4 hours	0.24	0.97	93.8
concentration: 33.6 (µM), S9 metabolic activation: without S9, exposure time: 24 hours	1.12	1.75	128
concentration: 41.9 (µM), S9 metabolic activation: with S9, exposure time: 3-4 hours	0.27	1.17	78.7
concentration: 41.9 (µM), S9 metabolic activation: without S9, exposure time: 24 hours	0.79	1.97	109
concentration: 52.4 (µM), S9 metabolic activation: with S9, exposure time: 3-4 hours	0.405	0.89	58.9
concentration: 52.4 (µM), S9 metabolic activation: without S9, exposure time: 24 hours	0.82	2.11	98.5
concentration: 65.5 (µM), S9 metabolic activation: with S9, exposure time: 3-4 hours	1.04	1.82	57.5
concentration: 65.5 (µM), S9 metabolic activation: without S9, exposure time: 24 hours	0.62	1.93	106
concentration: 81.9 (µM), S9 metabolic activation: with S9, exposure time: 3-4 hours	–	–	42.4
concentration: 81.9 (µM), S9 metabolic activation: without S9, exposure time: 24 hours	0.99	2.21	109
concentration: 102 (µM), S9 metabolic activation: with S9, exposure time: 3-4 hours	–	–	29.9
concentration: 102 (µM), S9 metabolic activation: without S9, exposure time: 24 hours	0.91	2.23	87.6
concentration: 128 (µM), S9 metabolic activation: with S9, exposure time: 3-4 hours	–	–	17.6
concentration: 128 (µM), S9 metabolic activation: without S9, exposure time: 24 hours	1.32	2.28	94.8
concentration: 160 (µM), S9 metabolic activation: with S9, exposure time: 3-4 hours	–	–	6.22
concentration: 160 (µM), S9 metabolic activation: without S9, exposure time: 24 hours	1.27	2.99	79.2
concentration: 200 (µM), S9 metabolic activation: with S9, exposure time: 3-4 hours	–	–	1.13
concentration: 200 (µM), S9 metabolic activation: without S9, exposure time: 24 hours	1.13	1.96	57.3
